In PubChem BioAssay (NCATS):
The other results are listed elsewhere or left out. The main result of the screen is listed elsewhere. These columns were measured beside it and carry no call. Most of these compounds were active or inconclusive in the main read-out, so they are no random draw. Words in brackets tell the shape of the fitted curve; partial curves, single points and poor fits give uncertain potencies.

Assay: Cell-based coincidence reporter assay to measure PMP22 gene transcription in S16 Pmp22-F2sN cells - Confirmatory screen (AID 1508646)
Settings: S16 Schwann cells Pmp22-F2sN, dual luciferase, 24 h
Outline: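 S16 Schwann cells carrying a bioluminescent reporter in the Pmp22 3' UTR (Pmp22-F2sN) were treated with compounds for 24 h at 37C, then lysed; FLuc and then NLuc luminescence were read sequentially with a dual-luciferase kit on a CCD imager.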

[1] = measured here: FLuc reporter channel
[2] = measured here: NLuc reporter channel
Tags tell the direction and shape of the fitted curve.

| SMILES | AC50 [1] | AC50 [2] |
| --- | --- | --- |
| Cn1c(=O)c2c(nc(NCc3ccccc3)n2Cc2ccc(Cl)c(Cl)c2)n(C)c1=O | 13.7 µM [falling, partial curve] | 24.3 µM [falling, partial curve] |
| Cc1ccc(CCNC(=O)c2ccc(Nc3nc4ccccc4n4nnnc34)cc2)cc1 | 21.7 µM [falling, partial curve] | 21.7 µM [falling, partial curve] |
| Cc1ccc(NC(=O)/C(C#N)=C/c2cc(C)n(-c3ccc(Br)cc3)c2C)cc1C | 24.3 µM [falling, partial curve, poor fit] | 21.7 µM [falling, partial curve] |
| COc1ccc(C)cc1Nc1c2c(nc3ccccc13)CCC2 | 3.85 µM [falling, full curve, poor fit] | 2.17 µM [falling, full curve, poor fit] |
| O=C(COc1ccc(F)cc1)Nc1ccc2nc(SCc3ccccc3)sc2c1 | 15.3 µM [rising, single point] | 43.2 µM [falling, single point] |
| Cc1ccc(C)c(N2CCN(CCCNC(=O)c3ccc4nc(C(C)C)oc4c3)CC2)c1 | 24.3 µM [falling, partial curve] | 34.3 µM [falling, partial curve, poor fit] |
| Cc1ccccc1CNC(=O)CSc1nnc(C)c2c(C)n(-c3ccccc3)nc12 | 17.2 µM [falling, partial curve] | 15.3 µM [falling, partial curve] |
| Cc1ccc(Cl)cc1N1CCN(C(=O)c2ccc(C)c(-n3c(C)nc4cccnc43)c2)CC1 | 27.3 µM [falling, partial curve] | 43.2 µM [falling, single point] |
| COc1ccc(NS(=O)(=O)c2ccc3[nH]c4c(c3c2)CCCC4)cc1OC | 27.3 µM [falling, single point] | 10.9 µM [falling, partial curve, poor fit] |
| CC1=Nc2cc(C(=O)NC3CCCCC3)ccc2Sc2ccc(Cl)cc21 | 7.69 µM [falling, full curve] | 9.68 µM [falling, full curve] |
| COc1ccc(Nc2c3c(nc4ccc(NC(=O)c5cc(Cl)ccc5OC)cc24)CCCC3)cc1OC | 9.68 µM [falling, full curve] | 9.68 µM [falling, full curve] |
| CCCCOc1ccc(CN2C(=O)C(=O)c3cc(C)ccc32)cc1OC | 30.6 µM [falling, partial curve, poor fit] | 24.3 µM [falling, partial curve] |
| CCN(CC)CCNC(=O)c1cc(-c2ccc(Br)s2)nc2ccccc12 | 15.3 µM [falling, partial curve] | 19.3 µM [falling, partial curve] |
| COc1cccc(NC(=O)CSc2ncc3c(n2)-c2ccc(Cl)cc2N(C)S3(=O)=O)c1 | 27.3 µM [falling, single point] | 43.2 µM [falling, partial curve, poor fit] |
| COc1cc(/C=C(\C#N)c2nc3ccccc3[nH]2)ccc1OCc1ccccc1F | 5.44 µM [falling, full curve] | 17.2 µM [falling, partial curve, poor fit] |
| COc1ccc(-c2cc(C(F)(F)F)n3nc(C)c(-c4ccccc4)c3n2)cc1OC | 15.3 µM [falling, partial curve] | 17.2 µM [falling, partial curve, poor fit] |
| Cc1cc(Nc2cccc(Br)c2)n2c(nc3ccccc32)c1C#N | 43.2 µM [falling, single point] | 43.2 µM [falling, single point] |
| COc1ccc(C(C)=O)cc1CSc1nc(Nc2ccc(F)c(F)c2)c2ccccc2n1 | 27.3 µM [falling, partial curve] | 43.2 µM [falling, single point] |
| COc1ccc(Cl)cc1NC(=O)Cn1c(=O)n(-c2ccc(C)cc2)c(=O)c2ccc(C(=O)NCc3ccccc3Cl)cc21 | 6.85 µM [falling, full curve] | 15.3 µM [falling, partial curve] |
| CCc1ccc(CNc2ncc(-c3cccc(OC)c3)n2C)cc1 | 17.2 µM [falling, partial curve] | 24.3 µM [falling, partial curve, poor fit] |
| CCN(CC)S(=O)(=O)c1ccc2c(c1)N(CC(=O)NCCCN1CCN(c3cc(Cl)ccc3C)CC1)C(=O)CO2 | 34.3 µM [falling, partial curve] | 43.2 µM [falling, partial curve] |

| SMILES | AC50 [1] | AC50 [2] |
| --- | --- | --- |
| CCC(=O)N1CCc2cc(S(=O)(=O)CCC(=O)Nc3ccc(Cl)c(C(F)(F)F)c3)ccc21 | 17.2 µM [falling, partial curve] | 19.3 µM [falling, partial curve] |
| CCN(CC)CCCNC(=O)CSc1c2c(nc3cc(Cl)ccc13)CCCC2 | 8.62 µM [falling, full curve] | 12.2 µM [falling, partial curve] |
| O=C(NCc1ccccc1Cl)c1ccc(Nc2nc3ccccc3n3nnnc23)cc1 | 15.3 µM [falling, full curve, poor fit] | 15.3 µM [falling, partial curve, poor fit] |
| O=C(NCc1ccc(Cl)cc1)C(=O)Nc1cccc(Br)c1 | 30.6 µM [falling, single point] | 24.3 µM [falling, partial curve] |
| CCc1ccccc1Nc1cc(C(=O)NCCCN(C)C2CCCCC2)c2ccccc2n1 | 27.3 µM [falling, partial curve] | 43.2 µM [falling, single point] |
| COc1ccc(-c2onc(C)c2C)cc1S(=O)(=O)Nc1cc(Cl)ccc1C | 9.68 µM [falling, full curve, poor fit] | 10.9 µM [falling, full curve, poor fit] |
| CCOc1cc(-c2nnc(SCC(=O)NCc3ccccc3)nc2-c2ccc(OC)c(OCC)c2)ccc1OC | 6.11 µM [falling, full curve, poor fit] | 13.7 µM [falling, full curve, poor fit] |
| Cc1cc(C)c(NC(=O)Cn2c(=O)n(Cc3ccc(C(=O)NCc4ccc5c(c4)OCO5)cc3)c(=O)c3ccccc32)c(C)c1 | 6.85 µM [falling, full curve] | 10.9 µM [falling, partial curve] |
| Cc1cc(Nc2ccc(F)cc2)nc(-n2nc(C)cc2C)n1 | 19.3 µM [falling, partial curve] | 13.7 µM [falling, partial curve] |
| CCOC(=O)N1CCN(Cc2nc3cc(NC(=O)CC)ccc3n2C(C)C)CC1 | 3.43 µM [falling, full curve, poor fit] | 5.44 µM [falling, full curve] |
| COc1ccc(Cl)cc1NC(=O)CSC1=Nc2ccccc2C2=NC(CCC(=O)NCc3ccco3)C(=O)N12 (configuration not stated) | 13.7 µM [falling, partial curve, poor fit] | 10.9 µM [falling, partial curve, poor fit] |
| CCOC(=O)c1ccc(N2C(=O)c3[nH]nc(-c4ccc(C)cc4)c3C2c2ccc(O)c(OCC)c2)cc1 (configuration not stated) | 12.2 µM [falling, partial curve] | 21.7 µM [falling, partial curve] |
| CCC1CCCCN1CCCNC(=O)c1cc2c(Cl)nc3ccccc3c2s1 (configuration not stated) | 21.7 µM [falling, partial curve] | 24.3 µM [falling, partial curve, poor fit] |
| Cc1cccc(N(C)S(=O)(=O)c2ccc(-c3cc(C)no3)s2)c1 | 9.68 µM [falling, full curve, poor fit] | 6.85 µM [falling, full curve, poor fit] |
| CCOC(=O)c1cc(NC(=O)c2ccccc2)c(=O)n2c1oc1ccc(Cl)cc12 | 5.44 µM [falling, partial curve, poor fit] | 4.85 µM [falling, full curve] |
| COc1cc(OC)c(NS(=O)(=O)c2ccc3c(c2)NC(=O)CCS3)cc1Cl | 43.2 µM [falling, single point] | 43.2 µM [falling, single point] |
| CC(=O)N1CCCc2cc(S(=O)(=O)N3CCCC(C(=O)N4CCN(c5cccc(Cl)c5)CC4)C3)ccc21 (configuration not stated) | 24.3 µM [falling, partial curve] | 24.3 µM [falling, partial curve] |
| O=C(CSc1c2c(nc3ccc(Cl)cc13)CCCC2)N1CCN(c2cccc(Cl)c2)CC1 | 13.7 µM [falling, full curve] | 21.7 µM [falling, partial curve] |
| CCCS(=O)(=O)c1ncc(Cl)c(C(=O)Nc2c(C(=O)Nc3ccccc3)oc3ccccc23)n1 | 8.62 µM [falling, full curve] | 7.69 µM [falling, full curve] |
| O=C(CCS(=O)(=O)c1ccc(Br)s1)Nc1cc(C(F)(F)F)cc(C(F)(F)F)c1 | 24.3 µM [falling, partial curve] | 21.7 µM [falling, partial curve] |
